The other results are listed elsewhere or left out.

For one assay, the system named is HSkMC. Briefly: cytotoxicity call (relative viability < 0.9). The conditions noted are these: 10 µM.
A further assay deals with HepG2. Briefly: cytotoxicity call (relative viability < 0.9). The following applies: 10 µM.
The next assay concerns S. aureus RN4220. Description: growth inhibition call (relative growth <= 0.2). The conditions noted are these: 50 µM.

As for `C[C@H]1CN([C@@H](C)CO)C(=O)c2cccc(NC(=O)c3ccncc3)c2O[C@@H]1CN(C)S(=O)(=O)c1cccs1`, the cytotoxicity call with HSkMC and with HepG2 was “inactive” throughout. In addition, the growth inhibition call in the assay with S. aureus RN4220 is “inactive”.

Turning to `C[C@@H]1CN([C@H](C)CO)C(=O)Cc2cc(NC(=O)NC3CCCCC3)ccc2O[C@H]1CN(C)Cc1ccc(Oc2ccccc2)cc1`, the cytotoxicity call in the assay with HSkMC and in the assay on HepG2 was “inactive” in each case. In addition, the growth inhibition call with S. aureus RN4220 was “inactive”.

For the compound `COc1cccc(CNC(=O)C[C@@H]2CC[C@H]3[C@@H](COC[C@H](O)CN3S(=O)(=O)c3ccc(C)cc3)O2)c1`, the cytotoxicity call in the assay with HSkMC and with HepG2 was “inactive” in each case. Further, in the assay with S. aureus RN4220, the growth inhibition call is “inactive”.

Turning to `C[C@@H]1CCCCO[C@H](CN(C)Cc2ccc3c(c2)OCO3)[C@H](C)CN([C@H](C)CO)C(=O)c2cc(NS(=O)(=O)c3ccc(Cl)cc3)ccc2O1`, the cytotoxicity call in the assay with HSkMC and in the assay with HepG2 was “inactive” in each case. The growth inhibition call with S. aureus RN4220 was “inactive”.

Take `O=C(O)[C@H]1CCCN1C(=O)c1cccnc1`: the cytotoxicity call with HSkMC and in the assay on HepG2 was “inactive” in each case. Besides, the growth inhibition call with S. aureus RN4220 was “inactive”.

In the case of `Cc1noc(C)c1S(=O)(=O)Nc1ccc2c(c1)C(=O)N([C@H](C)CO)C[C@H](C)[C@@H](CN(C)S(=O)(=O)c1cccs1)O2`, the cytotoxicity call in the assay on HSkMC and in the assay on HepG2 was “inactive” in each case. The growth inhibition call in the assay on S. aureus RN4220 is “inactive”.

For the compound `C[C@H]1CN([C@@H](C)CO)C(=O)c2cccc(NC(=O)NC3CCCCC3)c2O[C@@H]1CN(C)C(=O)Nc1cccc2ccccc12`, the cytotoxicity call in the assay on HSkMC and in the assay with HepG2 was “inactive” each time. The growth inhibition call in the assay on S. aureus RN4220 is “inactive”.

In the case of `CCCCCCC#C[Si](O[C@H](c1ccccc1)c1cn([C@H](C)c2ccccc2)nn1)(C(C)C)C(C)C`, the cytotoxicity call in the assay with HSkMC and in the assay with HepG2 was “inactive” each time. In the assay with S. aureus RN4220, the growth inhibition call was “inactive”.

`COc1ccc(-c2cc3c(c(CCc4ccccc4)n2)[Si](C(C)C)(C(C)C)O[C@H]3c2ccccc2)cn1`: the cytotoxicity call in the assay on HSkMC and with HepG2 was “inactive” throughout. For the same compound, in the assay with S. aureus RN4220, the growth inhibition call is “inactive”.

Take `O=C(Cc1cccs1)N1c2ccccc2Sc2ccccc21`: the cytotoxicity call in the assay with HSkMC is “inactive”. For the same compound, the cytotoxicity call in the assay on HepG2 was “active”. In addition, in the assay on S. aureus RN4220, the growth inhibition call is “inactive”.

For the compound `C[C@H](CO)N1C[C@H](C)[C@H](CN(C)C(=O)Nc2ccccc2)Oc2cc(C#CC3(O)CCCC3)ccc2S1(=O)=O`, the cytotoxicity call in the assay with HSkMC and with HepG2 was “inactive” each time. Moreover, the growth inhibition call in the assay on S. aureus RN4220 was “inactive”.

Regarding `COc1ccc(CN(C)C[C@H]2Oc3c(NS(C)(=O)=O)cccc3C(=O)N([C@@H](C)CO)C[C@@H]2C)cc1`, the cytotoxicity call in the assay with HSkMC and in the assay with HepG2 was “inactive” throughout. In the assay with S. aureus RN4220, the growth inhibition call was “inactive”.

On to `C[C@@H](O)[C@@H](O)[C@@H](O)C/C=N/NC(=O)CCCCCCC(=O)NO`, for which the cytotoxicity call in the assay with HSkMC and in the assay with HepG2 was “inactive” each time. Besides, in the assay on S. aureus RN4220, the growth inhibition call was “inactive”.

Take `CC(C)NC(=O)Nc1ccc2c(c1)C(=O)N([C@H](C)CO)C[C@H](C)[C@H](CN(C)S(=O)(=O)c1ccccc1)O2`: the cytotoxicity call in the assay with HSkMC and in the assay with HepG2 was “inactive” each time. Besides, the growth inhibition call with S. aureus RN4220 was “inactive”.

As for `O=c1[nH][nH]c(=S)n1C1CC1`, the cytotoxicity call with HSkMC and in the assay with HepG2 was “inactive” in each case. The growth inhibition call in the assay with S. aureus RN4220 was “inactive”.

For `COc1ccc(CN2C[C@@H](C)[C@H](OC)CN(C)C(=O)c3cc(NC(=O)c4nc5ccccc5s4)ccc3OC[C@@H]2C)cc1`, in the assay on HSkMC, the cytotoxicity call is “inactive”. Moreover, the cytotoxicity call with HepG2 was “active”. Besides, the growth inhibition call in the assay on S. aureus RN4220 is “inactive”.

Consider `Cc1ccc(S(=O)(=O)N(C)C[C@@H]2Oc3ccc(NS(=O)(=O)c4ccccc4)cc3C(=O)N([C@@H](C)CO)C[C@@H]2C)cc1`, for which the cytotoxicity call in the assay on HSkMC and in the assay with HepG2 was “inactive” in each case. For the same compound, the growth inhibition call in the assay on S. aureus RN4220 was “inactive”.

On to `CC(C)NC(=O)N(C)C[C@H]1OCCCC[C@@H](C)Oc2ccc(NC(=O)C3CCCCC3)cc2C(=O)N([C@H](C)CO)C[C@@H]1C`, for which the cytotoxicity call in the assay with HSkMC and in the assay with HepG2 was “inactive” throughout. The growth inhibition call in the assay on S. aureus RN4220 was “inactive”.

Regarding `C[C@H]1CN([C@@H](C)CO)C(=O)Cc2cc(NC(=O)NC3CCCCC3)ccc2O[C@@H]1CN(C)C(=O)Nc1ccc(C(F)(F)F)cc1`, the cytotoxicity call in the assay with HSkMC and with HepG2 was “inactive” throughout. In the assay on S. aureus RN4220, the growth inhibition call was “inactive”.

In the case of `COc1ccc(NC(=O)Nc2ccc3c(c2)C(=O)N([C@H](C)CO)C[C@@H](C)[C@H](CN(C)C(=O)NC2CCCCC2)OCCCC[C@H](C)O3)cc1`, the cytotoxicity call in the assay on HSkMC and with HepG2 was “inactive” each time. Besides, the growth inhibition call in the assay with S. aureus RN4220 is “inactive”.

On to `O=C1NCCCc2occc21`, for which the cytotoxicity call in the assay on HSkMC and with HepG2 was “inactive” throughout. In the assay with S. aureus RN4220, the growth inhibition call was “inactive”.

Regarding `COc1ccc(S(=O)(=O)N(C)C[C@@H]2Oc3c(NS(=O)(=O)c4cn(C)cn4)cccc3C(=O)N([C@H](C)CO)C[C@H]2C)cc1`, the cytotoxicity call with HSkMC and in the assay on HepG2 was “inactive” each time. In the assay with S. aureus RN4220, the growth inhibition call was “inactive”.

Turning to `Cc1noc(C)c1NC(=O)N(C)C[C@H]1OCCCC[C@H](C)Oc2ccc(NC(=O)c3ccccc3)cc2C(=O)N([C@@H](C)CO)C[C@H]1C`, the cytotoxicity call in the assay on HSkMC and in the assay on HepG2 was “inactive” throughout. Besides, the growth inhibition call in the assay with S. aureus RN4220 is “inactive”.

Regarding `COC(=O)C(CC#Cc1ccc2c(c1)[C@]1(C(=O)N2)[C@H](C(=O)N2CCc3cc(OC)c(OC)cc3C2)[C@H]2C(=O)O[C@H](c3ccccc3)[C@H](c3ccccc3)N2[C@@H]1c1ccc(OCCO)cc1)C(=O)OC`, the cytotoxicity call in the assay on HSkMC and with HepG2 was “inactive” throughout. In addition, in the assay with S. aureus RN4220, the growth inhibition call was “inactive”.

With `Cc1c(-c2ccnn2C)cc(C(=O)NCc2ccc(S(C)(=O)=O)cn2)c(=O)n1-c1cccc(C(F)(F)F)c1`, the cytotoxicity call with HSkMC and with HepG2 was “inactive” each time. For the same compound, the growth inhibition call in the assay on S. aureus RN4220 is “inactive”.

For `C[C@@H]1CN([C@@H](C)CO)C(=O)Cc2cc(NS(=O)(=O)c3ccccc3)ccc2O[C@@H]1CN(C)S(=O)(=O)c1ccc(F)cc1`, the cytotoxicity call in the assay on HSkMC and in the assay on HepG2 was “inactive” throughout. In addition, the growth inhibition call in the assay on S. aureus RN4220 is “inactive”.

As for `Cc1cc(C(=O)O)n[nH]1`, the cytotoxicity call in the assay on HSkMC and in the assay with HepG2 was “inactive” throughout. For the same compound, in the assay with S. aureus RN4220, the growth inhibition call was “inactive”.

In the case of `C[C@@H]1CN([C@H](C)CO)C(=O)c2cccc(NS(=O)(=O)c3cn(C)cn3)c2O[C@@H]1CN(C)C(=O)Nc1ccccc1`, the cytotoxicity call in the assay on HSkMC (human skeletal muscle cells) and in the assay with HepG2 was “inactive” in each case. For the same compound, the growth inhibition call in the assay with S. aureus RN4220 was “inactive”.
